Experimental data taken from PubChem BioAssay AID485344 (National Center for Advancing Translational Sciences (NCATS), 2010).
In all, about 340,000 compounds went through this assay and about 6,900 (2%) were called active. No stated cut-off is given here; in the data, active means inhibition above about 30%; inactive means below that, where a call was filed. This is a selection; strong and weak results do not stand in their true shares. Entries without a call were filed so in the source.

Each molecule was assayed against D(2) dopamine receptor (Homo sapiens) (UniProt P14416) (assay: HTS Assay for Allosteric Antagonists of the Human D2 Dopamine Receptor: Primary Screen for Antagonists). Conditions: HEK293 TREx D2 cells, calcium flux, dopamine EC80; at 10 µM; stronger effect = higher value.
UniProt P14416, sequence (P14416 whole entry, looked up): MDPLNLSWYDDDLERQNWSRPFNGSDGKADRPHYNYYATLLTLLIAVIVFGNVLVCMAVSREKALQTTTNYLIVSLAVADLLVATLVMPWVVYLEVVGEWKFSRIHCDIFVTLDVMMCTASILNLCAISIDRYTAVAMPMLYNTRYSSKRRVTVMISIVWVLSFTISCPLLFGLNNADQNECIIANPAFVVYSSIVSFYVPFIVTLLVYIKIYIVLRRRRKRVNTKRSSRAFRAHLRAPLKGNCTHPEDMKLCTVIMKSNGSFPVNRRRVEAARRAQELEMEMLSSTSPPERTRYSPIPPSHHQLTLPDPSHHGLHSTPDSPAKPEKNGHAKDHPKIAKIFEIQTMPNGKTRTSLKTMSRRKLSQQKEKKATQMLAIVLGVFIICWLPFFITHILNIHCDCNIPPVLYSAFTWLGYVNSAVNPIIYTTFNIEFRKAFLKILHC
Summary of the method: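 Inhibition of EC80 dopamine-driven calcium flux, recorded kinetically, defines activity here; cells are a tetracycline-induced HEK293 T-REx line expressing force-coupled D2.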
Further: 0% is about no effect.

Structure (SMILES)	inhibition
CCc1ccccc1N(C)S(=O)(=O)c1ccc2[nH]cc(C(=O)NCCOC)c(=O)c2c1	24.6%
O=C(Nc1ccc(Br)cc1)c1ccc(Br)c(S(=O)(=O)N2CCCCC2)c1	1.55%
Cc1ccc(CCNC(=O)c2cc3sccc3n2Cc2ccc(F)cc2)cc1	3.82%
COC(=O)c1c(NC(=O)COc2ccccc2Cl)sc2c1CCC(C(C)(C)C)C2 (configuration not stated)	-5.34%
Cc1cn2c(=O)cc(COC(=O)c3cccc(NC(=O)COc4ccc(Cl)cc4)c3)nc2s1	-1.38%
COC(=O)c1ccc(Cl)cc1NC(=O)N1CCC(CN2CCCC2)CC1	16.9%
Cc1ccc(C(=O)c2cn(Cc3ccccc3F)c3cc4c(cc3c2=O)OCO4)cc1	18.3%
N#C/C(=C\c1ccc(Br)cc1)c1nc(-c2cc3cc(Br)ccc3oc2=O)cs1	0.376%
Cc1cccc(-n2ncc(C(=O)NCc3ccco3)c2C2CCN(C(=O)OC(C)(C)C)CC2)c1	11.9%
O=C(CSc1ncc2c(n1)-c1ccccc1N(Cc1ccc(F)cc1)S2(=O)=O)NCc1ccccc1	2.02%
CCc1nn(CC(=O)NCCN(CC)CC)c(=O)c2cc3occc3n12	8.25%
Cc1nc2cccnc2n1C1CCN(S(=O)(=O)c2ccc(C(C)C)cc2)CC1	-6.53%
CCn1c(=O)c2cc(C(=O)N(C)c3cc(Cl)c(OC)cc3OC)sc2c2ccccc21	0.383%
Cc1cccc(CNC(=O)CCCN2C(=O)COc3ccc(C)cc32)c1	-4.14%
Cc1ccc(N2CCN(C(=O)c3c(C)oc4nc(C)nc(N5CCCC5)c34)CC2)c(C)c1	-3.94%
COc1cccc(NS(=O)(=O)c2ccc(Br)s2)c1	active: 33.7%
CCOC(=O)c1cccc(NC(=O)N2CC(CC)Oc3ccccc32)c1 (configuration not stated)	-11.9%
COc1ccc(NC(=O)c2sc3nc4c(cc3c2N)CCCCCC4)cc1Cl	4.05%
COc1cc(NS(=O)(=O)c2ccc(NC(=O)c3ccc(C(C)=O)cc3)cc2)nc(OC)n1	3.14%
CCOc1ccc(-c2cc(CCCC(=O)NCCc3ccc(OCC)c(OCC)c3)no2)cc1	-27.3%
CCCOC(=O)c1ccc(Nc2nc3ccccc3nc2-n2nc(C)cc2C)cc1	1.34%
Cc1ccccc1NC(=O)c1ccc(F)c(S(=O)(=O)NC2CCCC2)c1	-28.6%
CCN1CCN(C(=O)c2ccc3c(c2)N(Cc2ccccc2F)C(=O)c2ccccc2S3(=O)=O)CC1	-13.2%
O=C(CSc1nc(-c2ccco2)nc2cc(=O)[nH]n12)Nc1ccccc1F	3.2%
O=C(c1ccccc1Cl)N1CCN(CCc2ccccn2)CC1	17.1%

Structure (SMILES)	inhibition
COc1ccc(NC(=O)CSc2nc(C)cc(C)c2C(=O)Nc2cccc(C)c2)cc1	-9.69%
COc1ccc2cc3cc(C(=O)Nc4ccccc4C)oc3nc2c1	1.72%
COc1cccc(C(=O)Nc2ccccc2-c2nnc(-c3ccc(C(C)(C)C)cc3)o2)c1	2.9%
COc1cccc(N2CCN(C(=O)Cn3ncc4c5ccccc5n(C)c4c3=O)CC2)c1	-0.831%
Cc1cccc(-c2noc(-c3cc(-c4ccc(F)cc4)n[nH]3)n2)c1	0.121%
Cc1oc2ncn(C)c(=O)c2c1C(=O)NCc1ccccc1	-12%
COC(=O)c1ccc(NC(=O)CN2CCN(c3ccccc3)CC2)cc1	active: 95%
COc1cc(OC)cc(C(=O)Nc2nc(-c3nnn(-c4ccc(F)c(Cl)c4)c3C)ns2)c1	14.3%
COc1cccc(CN2CCc3nc(N4CCN(C)CC4)ncc3C2)c1	-4.24%
CCOc1ccc(CCNC(=O)Cc2ccc(NC(=O)N3CCSc4ncccc43)cc2)cc1	7.56%
COc1ccc(-n2nc(C(=O)N3CCN(c4cccc(C(F)(F)F)c4)CC3)c3c4ccccc4n(C)c3c2=O)cc1Cl	10.9%
O=C(CSc1ccc(-c2cccs2)nn1)Nc1cccc(F)c1	12.2%
COc1ccccc1N1CCN(c2ncnc3onc(C)c23)CC1	13.4%
COc1ccc(-c2cc(C)no2)cc1S(=O)(=O)N1CC(C)Oc2ccccc21 (configuration not stated)	-2.67%
O=C(NCCN1CCOCC1)c1cccc(Cl)c1	active: 32.7%
COc1ccc(-n2c(SCC(=O)NCc3ccccc3)nc3n[nH]c(C)c3c2=N)cc1	6.27%
CN(C(=O)c1oc(=O)c2ccccc2c1-c1ccccc1)c1cccc(Cl)c1	3.12%
CCCn1c(=O)c2sccc2n2c(CCCC(=O)Nc3ccccc3F)nnc12	0.124%
COc1cccc(N2CCN(C(=O)Cn3ncc4c(=O)oc5ccccc5c43)CC2)c1	-6.39%
COc1ccc(C(=O)/C=C/c2cc(OC)c(O)c(OC)c2)c(F)c1	active: 33.3%
O=C1CC(c2cccc(F)c2)c2c(n3ncnc3[nH]c2=O)N1 (configuration not stated)	3.74%
CCOC(=O)Cn1c(=O)n(C2CCCCC2)c2nc(-c3cccc(C)c3)nc(C(N)=O)c21	6.52%
O=C(CSc1nc(O)c(C/C=C/c2ccccc2)c(=O)[nH]1)Nc1cccc(F)c1	-1.26%
CC(C)(C)c1ccc(S(=O)(=O)N2CCN(C(=O)c3cc(-c4ccc(Br)cc4)n[nH]3)CC2)cc1	19.4%
CCOc1ccc(NC(=O)c2noc3c2CSc2ccccc2-3)cc1	6.11%

Structure (SMILES)	inhibition
CCOCCc1nn2c(=O)cc(COC(=O)c3ccco3)nc2s1	9.35%
COc1cc(-c2noc(-c3ccc(N4CCCCC4)c([N+](=O)[O-])c3)n2)cc(OC)c1OC	11.4%
COc1cccc(CNC(=O)c2nnc(Cc3ccc(Cl)cc3)o2)c1	-5.58%
O=C(Nc1ccc2oc(-c3cc(Br)ccc3Cl)nc2c1)c1ccc2ccccc2c1	19.3%
Cc1csc2nc(-c3cccc(NC(=O)c4ccccc4F)c3)cn12	-22.2%
COc1cc(-c2nc3cnccn3c2Nc2ccc(C(C)C)cc2)ccc1O	-10.1%
COc1cccc(CNC(=O)CCS(=O)(=O)c2cc3c4c(c2)CCN4C(=O)CC3)c1	2.67%
CCc1ccc(Cn2c(CNS(=O)(=O)c3ccc(Cl)s3)nc3cccnc32)cc1	-4.01%
COc1ccccc1-c1ccnc2c(-c3ccc(Br)cc3)c(C)nn12	12.7%
Cc1ccccc1NC(=O)CSc1nnc(-c2cccc(Cl)c2)o1	5.81%
COc1ccc(CNC(=O)C(C)n2nc(C)c3sc4ccccc4c3c2=O)cc1OC (configuration not stated)	-5.06%
CCOC(=O)c1cc2c(=O)n3ccccc3nc2n(CC2CCCO2)c1=NC(=O)c1ccccc1F (configuration not stated)	-6.24%
Nc1nc(CN2CCN(c3ccccc3F)CC2)nc(N2CCCc3ccccc32)n1	active: 78.7%
CCCOc1ccc(CNC(=O)Cn2c(=O)oc3ccccc32)cc1	-12.6%
COc1cc(Cl)c(NC(=O)CN(C)S(=O)(=O)c2ccc3[nH]c4c(c3c2)CCCC4)c(OC)c1	-13.5%
COc1cccc(CNC(=O)c2cccc(NC(=O)c3nsc4ccccc34)c2)c1	5.61%
COc1cccc(CNC(=O)CC(c2ccc(C)cc2)N2Cc3ccccc3C2=O)c1 (configuration not stated)	2.01%
CCCOc1ccc(C2C(=O)N(C3CCCCC3)CC(=O)N2CCC2=CCCCC2)cc1OC (configuration not stated)	0.494%
Cc1ccc(CNC(=O)c2cnn(-c3ccc(F)cc3F)c2C2CCN(C(=O)OC(C)(C)C)CC2)cc1	-7.82%
COc1ccc(NS(=O)(=O)c2ccc3c(c2)n(C)c(=O)c(=O)n3C)cc1Cl	-7.29%
COc1ccc(N(CC(=O)N2CCN(c3ccc(F)cc3)CC2)S(=O)(=O)c2c(C)nn(C)c2C)cc1	9.64%
CC(=O)c1c(C)oc2ccc(N(C(=O)c3ccncc3)S(=O)(=O)c3ccc(F)cc3C)cc12	-17%
Cc1cccc(C(=O)Nc2sc3c(c2C(=O)O)CCCC3)c1	-2.96%
OC(COc1ccc(F)cc1Cl)CN1CCc2ccccc2C1 (configuration not stated)	active: 68.3%
Cc1cc(C)cc(NC(=O)CN(C)S(=O)(=O)c2ccc3c(c2)CCC(=O)N3)c1	15.9%

Structure (SMILES)	inhibition
COc1ccc(C)cc1NC(=O)CSc1nc2ccccc2nc1N1CC(C)OC(C)C1 (configuration not stated)	active: 38.1%
CCOc1ccccc1NC(=O)c1nn(-c2ccc(OC)cc2)c(=O)c2c1c1ccccc1n2C	1.48%
O=C(c1cccc([N+](=O)[O-])c1)N1CCN(CCc2ccncc2)CC1	4.21%
COc1cccc(-n2cc(C(=O)Nc3ccccc3C(N)=O)c3ccccc3c2=O)c1	-7.58%
O=C(O)c1cc2c(cc1NC(=O)C1CCCC1)OCCO2	active: 33.5%
Cc1ccc(NC(=O)CN2C(=O)COc3ccc(S(=O)(=O)N4CCOCC4)cc32)c(Cl)c1	-1.55%
CCOc1ccc(NC(=O)Cn2c(=O)n(Cc3ccccc3)c(=O)c3c4c(sc32)CN(C(C)=O)CC4)cc1	21.3%
CC(C)(C)c1ccc(S(=O)(=O)N2CCC(c3ccncc3)CC2)cc1	-23.3%
COc1ccccc1NC(=O)C1=C(C)Nc2ncnn2C1c1sccc1C (configuration not stated)	6.65%
Cc1ccccc1CNC(=O)Cn1cc2c(n1)-c1c(oc(C(=O)N3CCCC3)c1C)CC2	3.73%
COc1ccc2nc(NC(=O)c3nc(SCc4cccc(C)c4)ncc3Cl)sc2c1	-25.6%
COc1ccc(OC)c(CNC(=O)CCC(=O)N2Cc3ccccc3Oc3ncccc32)c1	-0.58%
CNc1nc(Oc2ccc(=O)[nH]n2)nc(N2CCOCC2)n1	-2.5%
COc1ccc(-n2cc(C(=O)Nc3ccccc3C#N)c3ccccc3c2=O)cc1	2.13%
CC(=O)Nc1c(C(=O)Nc2ccccc2F)oc2ccccc12	11.5%
CCc1ccc(Nc2nc3c(S(=O)(=O)c4cccc(Cl)c4)nnn3c3ccsc23)cc1	2.28%
CC1CCCCN1S(=O)(=O)c1ccc2[nH]c(=O)cc(C(=O)NCCc3ccc(Cl)cc3)c2c1 (configuration not stated)	4.21%
COC(=O)c1c(NC(=O)c2c(OC)cccc2OC)sc2c1CCCC2	-3.67%
CCN1CCc2nc(SCC(=O)Nc3ccc(OC)cc3)c(C#N)cc2C1	active: 35.7%
C=Cc1ccc(Cn2c(C(=O)OC)cc3sc(C)cc32)cc1	-10.1%
COc1cccc(NC(=O)CC2Oc3ccccc3NC2=O)c1 (configuration not stated)	3.92%
CC(=O)c1cccc(Nc2ncnc3c2cnn3-c2cccc(Cl)c2)c1	12.5%
